About 5,800 (2.1%) of roughly 270,000 compounds were called active. Inconclusive means that the source gave no clear call. Such entries were picked first, then a sample of the others. Calls follow the shape of the dose curve; as a rule, active = well fitted inhibition curve with a large enough effect; inconclusive = small, poorly fitted or top-dose-only effect; inactive = flat fitted curve, though single readings scatter. Potencies of inconclusive entries are doubtful fits and often do not repeat.
target: Microtubule-associated protein tau (Homo sapiens) (UniProt P10636); assay: qHTS for Inhibitors of Tau Fibril Formation, Thioflavin T Binding; details: recombinant tau K18 P301L (four-repeat tau fragment), heparin-induced fibrillization, ThT fluorescence; series mostly up to 57.4 µM; activity, negative = inhibition: at the top concentration; also: nearly all actives have a fitted effect of over 55% in size
How it was run: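 Recombinant human tau K18 fragment […] carrying P301L, 15 uM unlabeled plus 0.24 uM Alexa 594-labeled, was fibrillized with 20 uM heparin in 100 mM sodium acetate pH 7 for 6 hr at 37 C; 30 uM ThT fluorescence read after 1 hr.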
% is scaled to controls: 0 for no effect and ±100 for the full control effect; potency is read from the fitted curve at half-maximal effect; tags tell the direction and shape of the fitted curve.

UniProt P10636, sequence (P10636 whole entry, looked up, the tested form may be a part): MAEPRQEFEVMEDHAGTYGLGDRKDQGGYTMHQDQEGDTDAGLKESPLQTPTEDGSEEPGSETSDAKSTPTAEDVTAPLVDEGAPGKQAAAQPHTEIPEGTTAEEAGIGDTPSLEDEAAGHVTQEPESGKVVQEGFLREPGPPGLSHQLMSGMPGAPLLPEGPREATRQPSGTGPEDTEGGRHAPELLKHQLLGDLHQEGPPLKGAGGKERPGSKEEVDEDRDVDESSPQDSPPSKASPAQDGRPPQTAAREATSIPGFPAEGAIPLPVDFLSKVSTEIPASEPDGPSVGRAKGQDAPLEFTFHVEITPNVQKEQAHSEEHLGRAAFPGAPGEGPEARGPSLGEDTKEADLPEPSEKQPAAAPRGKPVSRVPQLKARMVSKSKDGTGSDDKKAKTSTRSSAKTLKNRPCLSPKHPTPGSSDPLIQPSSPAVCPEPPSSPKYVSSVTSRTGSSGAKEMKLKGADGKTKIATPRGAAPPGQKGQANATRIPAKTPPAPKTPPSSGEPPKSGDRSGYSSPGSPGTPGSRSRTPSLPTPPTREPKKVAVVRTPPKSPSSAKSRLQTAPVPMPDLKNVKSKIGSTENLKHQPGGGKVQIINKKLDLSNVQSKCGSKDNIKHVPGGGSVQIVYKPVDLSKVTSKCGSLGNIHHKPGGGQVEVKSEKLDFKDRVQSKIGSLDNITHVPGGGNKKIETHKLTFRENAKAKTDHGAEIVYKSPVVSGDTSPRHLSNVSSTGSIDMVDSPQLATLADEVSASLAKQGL

Structure (SMILES)	Potency	activity, negative = inhibition
COc1cc(C)ccc1OCCSc1nc2ccc(NC(=O)c3ccc4c(c3)OCO4)cc2s1	inconclusive: 0.891 µM [inhibitor, single point]	
O=C(N/N=C/c1cn(CCOc2ccccc2)c2ccccc12)c1ccncc1	inconclusive: 15.8 µM [inhibitor, partial curve]	
COc1ccc(-c2nc(N/N=C(\C)c3ccc(O)cc3)c3ccccc3n2)cc1	inconclusive: 39.8 µM [inhibitor, single point]	
CCOC(=O)N1CCN(c2cc(=O)n(-c3cccc(Br)c3)c(=O)[nH]2)CC1	inconclusive: 15.8 µM [inhibitor, partial curve]	
Cc1ccccc1C(=O)NC(=S)NCc1cccnc1		inactive: -9.2%
Cc1cc(C)n(CCc2nc(-c3ccc(C(C)(C)C)cc3)cs2)n1	inconclusive: 17.8 µM [inhibitor, partial curve]	
O=c1c2sc3ccccc3c2n(Cc2ccc(F)cc2)c(=O)n1Cc1ccccc1		inactive: 3.66%
O=C(CSc1ccc2c(c1)OCCO2)Nc1ccc(N2CCOCC2)cc1	inconclusive: 8.91 µM [inhibitor, partial curve]	
CCOc1ccc(CC(=O)NCCS(=O)(=O)N2CCN(c3ccccc3OC)CC2)cc1		inactive: -1.46%
Cc1ccc(S(=O)(=O)c2nc(-c3cccs3)oc2SC(C)c2ccccc2)cc1 (stereo unspecified)	inconclusive: 15.8 µM [inhibitor, partial curve, poor fit]	
O=C(CN(Cc1ccccc1)S(=O)(=O)c1ccc(Br)cc1)NCc1ccco1		inactive: -20.6%
N#Cc1cc(Sc2ccccn2)c(Sc2ccccn2)cc1C#N	inconclusive: 15.8 µM [inhibitor, single point]	
Cc1cc(C)nc(NS(=O)(=O)c2ccc(N/C=C/C(=O)c3ccc(Cl)c(Cl)c3)cc2)n1		inactive: -5.85%
O=C(COc1c(Cl)cccc1Cl)NN1C(=O)CSC1=S	inconclusive: 11.2 µM [inhibitor, partial curve]	
O=C(Cc1cccs1)Nc1nnc(SCc2cccc3ccccc23)s1		inactive: 2.45%
O=C1/C(=C/c2ccccn2)SC(=S)N1c1ccc(O)cc1	inconclusive: 4.47 µM [inhibitor, partial curve]	
COc1cccc2cc(C(=O)NCCC3=CCCCC3)c(=O)oc12	inconclusive: 6.31 µM [inhibitor, partial curve]	
CCCCN(CC)S(=O)(=O)c1ccc(C(=O)N=c2sc3cc(NC(C)=O)ccc3n2C)cc1		inactive: 1.45%
CSc1nsc(SC)c1C(=O)NCCNS(=O)(=O)c1ccc(C)cc1		inactive: -18.4%
Cc1ccc(Cc2ccc(C(=O)NNC(N)=S)o2)cc1		inactive: -10.1%
Cc1nc2sc(C(=O)O)c(N)c2c2c1COC(C)(C)C2	inconclusive: 28.2 µM [inhibitor, single point]	
COc1ccc(C2CC(=O)N3CN(c4ccc(C)c(Cl)c4)CSC3=C2C#N)cc1 (stereo unspecified)	active: 31.6 µM	
Cc1sc2nc(CSc3ccc([N+](=O)[O-])c(C(F)(F)F)c3)[nH]c(=O)c2c1C		inactive: 9.25%
Cc1ccc(C2CC(c3ccco3)=NN2S(C)(=O)=O)cc1 (stereo unspecified)		inactive: -3.55%

Structure (SMILES)	Potency	activity, negative = inhibition
Fc1ccc(N/N=C/c2ccc(N3CCOCC3)cc2)c(F)c1	inconclusive: 15.8 µM [inhibitor, partial curve]	
O=C(/C=C/c1cn(CC(O)CN2CCCCC2)c2ccccc12)c1ccccc1 (stereo unspecified)	inconclusive: 39.8 µM [inhibitor, single point]	
O=C(CNC(=O)c1ccc(Cl)cc1Cl)OCC(=O)c1ccc2c(c1)OCCO2	inconclusive: 25.1 µM [inhibitor, partial curve]	
COc1ccc(-n2c(=O)c3c4c(sc3n(Cc3ccc(C)cc3C)c2=O)CCC4)c(OC)c1		inactive: -17.4%
Cc1ccc(S(=O)(=O)Nc2ccc(NC(=O)Nc3cccc(C(F)(F)F)c3)cc2)cc1		inactive: -10.8%
CCOC(=O)c1csc(NC(=O)CSc2nnnn2-c2ccc3c(c2)OCCO3)n1	inconclusive: 25.1 µM [inhibitor, partial curve, poor fit]	
CCOC(=O)CCSc1nc(C)c2cc(C)ccc2n1	inconclusive: 17.8 µM [inhibitor, partial curve]	
CCc1nc2ccccc2n2c(-c3ccccc3)c3c(=O)n(C)c(=O)n(C)c3c12	inconclusive: 44.7 µM [inhibitor, single point]	
Cc1cc(C(=O)CSc2nc3ccccc3c(=O)[nH]2)c(C)n1C	inconclusive: 31.6 µM [inhibitor, partial curve]	
CC1=CC(=C2C(=O)c3ccccc3C2=O)C=C(C)O1	inconclusive: 15.8 µM [inhibitor, partial curve]	
CCN(CC)c1ccc(/C=N\NC(=O)c2cccc3cc[nH]c23)cc1	active: 6.31 µM	
O=C1N=C(N2CCN(Cc3ccccc3)CC2)S/C1=C/c1cccs1	inconclusive: 20 µM [inhibitor, partial curve]	
Cc1ccc(/C=C(\NC(=O)c2ccc(C)cc2)c2nc(=S)[nH][nH]2)cc1	inconclusive: 28.2 µM [inhibitor, single point]	
N/C(=N\OC(=O)c1ccc(Cl)c(Cl)c1)c1ccccn1	inconclusive: 5.01 µM [inhibitor, partial curve]	
Cc1cccc(CSc2nnc(NC(=O)CSc3nnc(C)s3)s2)c1	inconclusive: 25.1 µM [inhibitor, partial curve]	
CC(C)c1cc(C(F)(F)F)n2nc(C(=O)Nc3ccc4c(c3)OCO4)cc2n1	inconclusive: 10 µM [inhibitor, partial curve]	
CCC(CC)C(=O)OCc1cc(=O)n2nc(C3CCCCC3)sc2n1	inconclusive: 12.6 µM [inhibitor, partial curve]	
COC(=O)c1c(SC)nc2ccccc2c1OCc1ccccc1Cl	inconclusive: 20 µM [inhibitor, partial curve, poor fit]	
CCSc1ccc(C(=O)Nc2ccc(-c3nc4ccc(C)cc4s3)cc2)cc1	inconclusive: 8.91 µM [inhibitor, full curve, poor fit]	
CCOc1ccc(NC(=O)C2CCN(c3nc4ccccc4[nH]3)CC2)cc1	inconclusive: 39.8 µM [inhibitor, single point]	
COC(=O)c1c(-c2ccco2)csc1NC(=O)C1CC=CCC1C(=O)O (stereo unspecified)		inactive: -4.14%
Cn1c(CC(=O)Nc2ccccc2)nnc1SCC(=O)c1ccccc1	inconclusive: 39.8 µM [inhibitor, single point]	
O=C(N/N=C/C=C/c1ccco1)c1cccnc1	inconclusive: 35.5 µM [inhibitor, single point]	
OC(CSc1ccc(F)cc1)CN1CCN(c2ccccc2)CC1 (stereo unspecified)	inconclusive: 17.8 µM [inhibitor, partial curve, poor fit]	

Structure (SMILES)	Potency	activity, negative = inhibition
CCc1nn2c(=O)cc(CSc3nc(C)cc(=O)[nH]3)nc2s1		inactive: -8.35%
O=C(N/N=C/c1c[nH]c2ccccc12)C1COc2ccccc2O1 (stereo unspecified)	inconclusive: 4.47 µM [inhibitor, full curve]	
CNC(=O)COC(=O)c1c2c(nc3ccccc13)CCC2	inconclusive: 39.8 µM [inhibitor, single point]	
Cc1cc(C)cc(NC(=O)CCc2nnc3n(C)c(=O)c4sccc4n23)c1		inactive: 0.755%
Cc1cc(C)n2nc(CNC(=O)c3ccccc3Cl)nc2n1		inactive: 10.8%
O=C(CCCSc1nc2ccccc2[nH]1)N1CCN(c2ccccc2)CC1	inconclusive: 3.55 µM [inhibitor, partial curve, poor fit]	
Cc1ccc(C(=O)N/N=C/c2ccc(N3CCOCC3)cc2)c(C)c1	inconclusive: 8.91 µM [inhibitor, partial curve]	
Cc1ccc(Cl)cc1N1CCN(C(=O)c2ccc(NS(=O)(=O)c3c(C)noc3C)cc2)CC1	inconclusive: 17.8 µM [inhibitor, partial curve]	
COc1ccccc1CCNC(=O)C(=O)NCC(c1ccco1)S(=O)(=O)c1ccc(F)cc1 (stereo unspecified)		inactive: -11.4%
Cn1c2ccccc2c2c(C(=O)N3CCN(c4cccc(Cl)c4)CC3)cn(C3CCCCC3)c(=O)c21		inactive: -11.9%
COc1ccc(OC)c(CCNC(=O)c2cc3cccc4c3n2CC(C)S4)c1 (stereo unspecified)		inactive: -9.38%
NC(=O)[C@@H]1CCCNc2c(I)cc([N+](=O)[O-])cc2C(=O)N[C@@H](Cc2ccccc2)C(=O)N[C@@H](Cc2cnc[nH]2)C(=O)N1		inactive: -11.4%
O=C(NCc1ccc2c(c1)CCN2C(=O)c1ccncc1)c1ccccc1Cl		inactive: 5.32%
O=C(Cc1coc2cc3c(cc12)CCC3)OCC(=O)N1CCCC1=O		inactive: -12.7%
O=S(=O)(Nc1nc(-c2sccc2Cl)cs1)c1cc(Cl)ccc1Cl	inconclusive: 22.4 µM [inhibitor, single point]	
Cc1ccc(/C=N/n2cnc3sc(-c4ccccc4)cc3c2=O)o1	inconclusive: 1.26 µM [inhibitor, full curve]	
CCC(=O)NC1CCN(C(=S)NC)CC1		inactive: -11.9%
O=C(/C=C/c1ccc(Cl)cc1Cl)NC(=S)Nc1ccccn1	inconclusive: 22.4 µM [inhibitor, partial curve]	
Cc1ccc(-c2nc3c(c(SCC(=O)N(C)c4ccccc4)n2)Cc2c(CO)cnc(C)c2O3)cc1		inactive: 4.16%
CCOc1ccc2[nH]c3c(N4CCc5ccccc5C4)ncnc3c2c1	inconclusive: 7.94 µM [inhibitor, partial curve]	
CCN(CC)c1cc(C)c2cc(NC(=O)c3ccccc3Cl)ccc2n1	inconclusive: 14.1 µM [inhibitor, partial curve]	
CCOC(=O)CC(NC(=O)c1cc2cc(Br)cc(OC)c2oc1=O)c1ccc(OC)cc1 (stereo unspecified)		inactive: 0.983%
COc1ccc(Nc2nc(S(=O)(=O)c3ccc(C)cc3)c(Cl)s2)cc1		inactive: -16.7%

From PubChem BioAssay AID1460 (National Center for Advancing Translational Sciences (NCATS), 2008)
